Among the data in the RNAGym collection of RNA variant scans (doi:10.7554/elife.90254) are self-cleavage values, retold here.

B1: LINE1-mini (parent)
chain: GGCAGAGCUCAACACAGCGUGGCAAAGUGGCUGUGGCUAGACUGCC

Read counts are not given, so values of variants with three or more changes are uncertain.

This data set covers variants of B1. Description: self-cleavage, relative activity (ratio to wild type); higher = more cleavage; in vitro, sequencing; the parent is a self-cleaving ribozyme.
Turning to C8U G21A G27U A41U, the self-cleavage worked out at 0.41.

As for C8U C23U A24U U34A C42G, the self-cleavage came out at 0.17.

As to C8U C13G U32G U38A, the self-cleavage came to 0.17.

Consider C8U G17C U28A, for which the self-cleavage amounted to 0.31.

For C8U C13G C18G, the self-cleavage turned out to be 0.04.

For the variant C8U C15U C18U G27U, the self-cleavage was found to be 0.07.

As for C8U G19U A41U, the self-cleavage was 0.04.

Regarding C8U C23A A25C G35U G36A U38C, the self-cleavage turned out to be 0.09.

For C8U C15G G29U U38G, the self-cleavage came to 0.03.

For C8U C23A G35U, the self-cleavage is 0.51.

Consider C8U C18A G21A G22C G33A A41U, for which the self-cleavage came out at 0.09.

For the variant C8U G21C G27A U32C, the self-cleavage came to 0.16.

C8U C42U G44U C46G: the self-cleavage amounted to 0.06.

With C8U G21U C37G A39G, the self-cleavage was 0.01.

C8U G19C U28G G33A: the self-cleavage was 0.09.

For the variant C8U C18U U20A, the self-cleavage came out at 0.11.

Regarding C8U C18U G33C U43C, the self-cleavage was found to be 0.03.

Regarding C8U G17A U20A, the self-cleavage was found to be 0.02.

C8U G22U G27C: the self-cleavage amounted to 0.15.

With C8U G27A G44C, the self-cleavage stood at 0.01.

In the case of C8U C15A U28G C46U, the self-cleavage turned out to be 0.14.

As to C8U C13U A24C A25C, the self-cleavage is 0.06.

Take C8U C13A A16G G22C C23A G40C C46G: the self-cleavage came out at 0.

In the case of C8U C23G G35A, the self-cleavage worked out at 0.68.

With C8U C10U U20G C46U, the self-cleavage worked out at 0.07.

Consider C8U C10U G22U, for which the self-cleavage is 0.05.

Take C8U C13U G29A C42A: the self-cleavage is 0.3.

For the variant C8U G22A G29A, the self-cleavage was 0.11.

Consider C8U C23U C37U, for which the self-cleavage was found to be 0.09.

Consider C8U C15G G30A U38A, for which the self-cleavage came to 0.23.

On to C8U C18A U20C A25C, for which the self-cleavage is 0.87.

In the case of C8U G21U C23G A25C U32C, the self-cleavage stood at 0.03.

Turning to C8U G21C U34G G36U, the self-cleavage worked out at 0.06.

On to C8U C23A A26U U28G G33U, for which the self-cleavage stood at 0.22.

Take C8U G17C C31U C42G C45U: the self-cleavage was 0.14.

Take C8U C23U A24C U34A: the self-cleavage was found to be 0.05.

On to C8U C15U C23A U28C G36C C46G, for which the self-cleavage stood at 0.1.

For C8U C13A A24G, the self-cleavage worked out at 0.28.

On to C8U C23U U38C, for which the self-cleavage was 0.44.

With C8U G17C C18U G19U G33C C42G, the self-cleavage came to 0.01.

C8U C15A G36C A39C: the self-cleavage was 0.05.

With C8U C13G U38A, the self-cleavage was 0.02.

On to C8U C15U G22A G30A, for which the self-cleavage stood at 0.3.

Regarding C8U C15G C31U U34G G35U, the self-cleavage amounted to 0.02.

For C8U C15A G22A C37U, the self-cleavage came to 0.18.

In the case of C8U C13A A14U A39G G40U, the self-cleavage was 0.06.

Regarding C8U C10U G17A C18A G33U, the self-cleavage was 0.03.

On to C8U C13A C37A, for which the self-cleavage worked out at 0.18.

On to C8U C13A C37G, for which the self-cleavage was 0.06.

Regarding C8U C23U G30A C42A, the self-cleavage was determined as 0.03.

As to C8U C15A G36A, the self-cleavage was 0.26.

As to C8U C13G C15A, the self-cleavage amounted to 1.04.

Turning to C8U G22C G30U G44C, the self-cleavage stood at 0.05.

As to C8U G22A A41U U43C, the self-cleavage worked out at 0.25.

For C8U C23G C31U, the self-cleavage was found to be 0.17.

For the variant C8U C15U G21A U38C G44U, the self-cleavage worked out at 0.57.

Consider C8U C23G U32A G40C C46U, for which the self-cleavage amounted to 0.02.

For the variant C8U C23A C42A, the self-cleavage stood at 0.22.

On to C8U G27U G29A, for which the self-cleavage worked out at 0.03.

Regarding C8U C15U C42G, the self-cleavage is 0.23.

Turning to C8U G17C C42A, the self-cleavage came to 0.03.

As for C8U C13U C23U, the self-cleavage came to 0.11.

As for C8U G17A G21A G33C G44A, the self-cleavage came to 0.1.

On to C8U C23A G40U, for which the self-cleavage worked out at 0.03.

As for C8U G19C C46U, the self-cleavage came to 0.11.

In the case of C8U G17A G19A, the self-cleavage is 0.08.

In the case of C8U G17A U34C G40U C42A C46G, the self-cleavage is 0.11.

Consider C8U C13U G17A G21A G27C, for which the self-cleavage was 0.25.

With C8U C15U C31G, the self-cleavage came to 0.18.

As to C8U C15U A16U, the self-cleavage came out at 0.14.

For the variant C8U C10U G19U G40U C42G, the self-cleavage came out at 0.05.

C8U C23U G27U U32C: the self-cleavage turned out to be 0.55.

In the case of C8U C13A G27A, the self-cleavage is 0.29.

For the variant C8U G27A G36U, the self-cleavage is 0.11.

C8U C23U U28C C37U U38A G44U: the self-cleavage was determined as 0.15.

C8U G27C G36U: the self-cleavage worked out at 0.08.

For C8U C15A G36A G40C, the self-cleavage turned out to be 0.12.

Turning to C8U G21A U28C G35C, the self-cleavage came to 0.26.

For C8U C15A A26U U28A G36C C45A, the self-cleavage amounted to 0.05.

Take C8U C18A A26G: the self-cleavage was determined as 0.18.

On to C8U C18U A25C U34G, for which the self-cleavage is 0.03.

Turning to C8U G19U A24G, the self-cleavage was 0.24.

In the case of C8U G17A G19A U20C G21U, the self-cleavage worked out at 0.08.

Turning to C8U G19U C46U, the self-cleavage is 0.09.

Turning to C8U C23U G44U, the self-cleavage turned out to be 0.08.

As for C8U C13G A26G A41C, the self-cleavage amounted to 0.03.

Regarding C8U G19C G30A, the self-cleavage stood at 0.19.

As for C8U G22U C42U, the self-cleavage was determined as 0.09.

As for C8U C31A A41C, the self-cleavage was determined as 0.

For the variant C8U C15U C23A G27U, the self-cleavage is 0.59.

Take C8U C15A C18A: the self-cleavage is 0.09.

On to C8U G21A A24C, for which the self-cleavage turned out to be 1.12.

As for C8U C18U G27A, the self-cleavage was determined as 0.14.

For the variant C8U G19C G40U C42U, the self-cleavage came to 0.2.

In the case of C8U C18A G27U G35U G40U C45A, the self-cleavage was 0.21.

Turning to C8U C13G U34G C42G C45A, the self-cleavage came to 0.25.

As for C8U C10U C23G A24C C37U, the self-cleavage came to 0.02.

With C8U C13U G22C G30A A39G, the self-cleavage was 0.02.

For C8U C15U G27U C31U, the self-cleavage is 0.06.

C8U C15U U20G G30U G35U: the self-cleavage came to 0.02.

Take C8U C23A U28C U38A: the self-cleavage stood at 0.04.

For C8U C15G C31U, the self-cleavage was 0.21.

As for C8U C15U G27U G30U A39C A41U, the self-cleavage stood at 0.16.

For C8U C23U A25U, the self-cleavage amounted to 0.15.

With C8U C13U A14U G30U, the self-cleavage was 0.45.

On to C8U C13A C31U, for which the self-cleavage was found to be 0.23.

On to C8U C15U C18A G33U, for which the self-cleavage was determined as 0.24.

Turning to C8U G19U A25U A26U U28A G30A, the self-cleavage is 0.3.

Turning to C8U G17C C37A, the self-cleavage amounted to 0.05.

In the case of C8U C18A A24G U34A C37A A41C, the self-cleavage amounted to 0.03.

In the case of C8U C10U U32C U43C, the self-cleavage came to 0.02.

In the case of C8U G27A G29U, the self-cleavage is 0.07.

As to C8U C15A G27A, the self-cleavage is 0.07.

On to C8U G19A G27U, for which the self-cleavage came out at 0.77.

C8U C18A A25C U32C G35U C45A: the self-cleavage came out at 0.01.

As for C8U G17U G22U, the self-cleavage came out at 0.66.

In the case of C8U G29U U34C G36U, the self-cleavage amounted to 0.15.

C8U C23U A41U: the self-cleavage worked out at 0.42.

For C8U G27U G30C C37U, the self-cleavage amounted to 0.01.

In the case of C8U G27C G33A G35U, the self-cleavage came out at 0.03.

C8U C31U C46U: the self-cleavage stood at 0.14.

In the case of C8U C13G C31A U34C, the self-cleavage was found to be 0.08.

C8U C31G G35A: the self-cleavage is 0.05.

C8U G21U G22A: the self-cleavage is 0.05.

Consider C8U C18A G21U, for which the self-cleavage came to 1.26.

On to C8U C10U G22U A39U, for which the self-cleavage is 0.04.

Take C8U G19A G21C C23G: the self-cleavage turned out to be 0.41.

As to C8U C18U A24U G27C, the self-cleavage turned out to be 0.02.

For C8U G22C C37A, the self-cleavage was 0.18.

On to C8U G19C G29A C37G, for which the self-cleavage amounted to 0.03.

Regarding C8U C13U A16C A39U, the self-cleavage was 0.04.

Consider C8U C18A C37G, for which the self-cleavage is 0.07.

C8U C13U C18A C37U: the self-cleavage is 0.42.

For the variant C8U G19A C46G, the self-cleavage turned out to be 0.

With C8U G21C U38C, the self-cleavage is 0.06.

On to C8U C15G G17U A26G, for which the self-cleavage was 0.24.

Regarding C8U C15A G27A C31A G44A C46U, the self-cleavage amounted to 0.41.

C8U C15A U20G: the self-cleavage was determined as 0.14.

Consider C8U C15U C18G, for which the self-cleavage was found to be 0.45.

Take C8U C31A C37U: the self-cleavage came out at 0.36.

For the variant C8U C15U U20G G40U, the self-cleavage was found to be 0.06.

Regarding C8U C31G A41G C45A, the self-cleavage was 0.08.

As to C8U G27U G40A, the self-cleavage turned out to be 0.33.

For C8U G19U U32G A39U, the self-cleavage is 0.07.

For the variant C8U G19U A24U U34C, the self-cleavage came to 0.12.

With C8U G22U G29U G30C U38A, the self-cleavage was determined as 0.08.

Take C8U G17A A26U G30U: the self-cleavage was 0.08.

On to C8U G27C G35C C42U, for which the self-cleavage stood at 0.12.

Take C8U C31G G35A U43A: the self-cleavage is 0.18.

Regarding C8U G27A U28A, the self-cleavage was 0.18.

As to C8U C37A U43C, the self-cleavage came to 0.29.

As to C8U G19C U28A G36C G44U, the self-cleavage turned out to be 0.1.

In the case of C8U C23G C37U, the self-cleavage turned out to be 0.05.

With C8U C13A A26G, the self-cleavage was found to be 0.33.

Consider C8U C31A C45U, for which the self-cleavage turned out to be 0.18.

Consider C8U G21U G30C, for which the self-cleavage was 0.08.

In the case of C8U C18G G40C, the self-cleavage is 0.08.

As for C8U C23A A41C, the self-cleavage worked out at 0.08.

In the case of C8U G19C C23U G27U U28G G33A C42U, the self-cleavage came out at 0.07.

Regarding C8U C18U C23G C37G, the self-cleavage worked out at 0.16.

Regarding C8U G17U C46A, the self-cleavage came to 0.03.

As to C8U G21A A26U G27U C37A, the self-cleavage was 0.14.

With C8U G22A G36A G44U, the self-cleavage was determined as 0.09.

C8U C15A G22A A26G: the self-cleavage came out at 0.11.

With C8U C15G A16G U20G, the self-cleavage came out at 0.05.

For C8U G17A A24C, the self-cleavage came to 0.42.

C8U G17U C18A G30C: the self-cleavage turned out to be 0.23.
